Assay results from the supplement of paper PMC4967469.

How the values were obtained:
Test in all cases: Viability of human cancer cell lines after 72 h of drug (GDSC screen)
NSC-87877 = compound: O=S(=O)(O)c1ccc2cc(N=Nc3cc(S(=O)(=O)O)c4cccnc4c3O)ccc2c1 [NSC-87877]; settings: top dose 16 µM; top dose inferred
Procedure: (§1)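 Human cancer cell lines in 384-well plates, medium with 10% serum, drug for 72 h over a 256-fold dose range (nine 2-fold or five 4-fold steps up to the top dose). Adherent lines were fixed and stained with the nucleic acid dye Syto60, suspension lines read with resazurin; signal relative to control wells, capped at 0 and 100%. One two-parameter sigmoid per drug and line, fitted in a mixed model over all curves with the slope shared within a line.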

VNLG/124 = compound: CCCC(=O)OCc1ccc(OC(=O)/C=C(C)/C=C/C=C(C)/C=C/C2=C(C)CCCC2(C)C)cc1 [VNLG/124]; settings: top dose 5.12 µM; top dose inferred
Procedure: as §1

BX-912 = compound: O=C(Nc1cccc(Nc2ncc(Br)c(NCCc3cnc[nH]3)n2)c1)N1CCCC1 [BX-912]; settings: top dose 10.24 µM; top dose inferred
Procedure: as §1

Masitinib = compound: Cc1ccc(NC(=O)c2ccc(CN3CCN(C)CC3)cc2)cc1Nc1nc(-c2cccnc2)cs1 [Masitinib]; settings: top dose 20 µM
Procedure: as §1

Tamoxifen = compound: CC/C(=C(\c1ccccc1)c1ccc(OCCN(C)C)cc1)c1ccccc1 [Tamoxifen]; settings: top dose 5 µM
Procedure: as §1

Elesclomol = compound: CN(NC(=O)CC(=O)NN(C)C(=S)c1ccccc1)C(=S)c1ccccc1 [Elesclomol]; settings: top dose 0.2 µM; top dose inferred
Procedure: as §1

OSI-930 = compound: O=C(Nc1ccc(OC(F)(F)F)cc1)c1sccc1NCc1ccnc2ccccc12 [OSI-930]; settings: top dose 10.24 µM
Procedure: as §1

LAQ824 = compound: O=C(/C=C/c1ccc(CN(CCO)CCc2c[nH]c3ccccc23)cc1)NO [LAQ824]; settings: top dose 1.024 µM; top dose inferred
Procedure: as §1

HG-5-88-01 = compound: COc1cc(N2CCC(C(N)=O)CC2)ccc1Nc1nc(N)c(Cl)c(Nc2ccccc2S(=O)(=O)C(C)C)n1 [HG-5-88-01]; settings: top dose 10 µM; top dose inferred
Procedure: as §1

Bleomycin = compound: Cc1c(N)nc([C@H](CC(N)=O)NC[C@H](N)C(N)=O)nc1C(=O)N[C@H](C(=O)N[C@H](C)[C@@H](O)[C@H](C)C(=O)N[C@H](C(=O)NCCc1nc(-c2nc(C(=O)NCCC[S+](C)C)cs2)cs1)[C@@H](C)O)[C@@H](OC1OC(CO)C(O)C(O)C1OC1OC(CO)C(O)C(OC(N)=O)C1O)c1cnc[nH]1 [Bleomycin]
Procedure: as §1

[1] = top dose 50 µM, screen: GDSC drug entry 1378, top dose inferred
[2] = top dose 64 µM, screen: GDSC drug entry 190

Cell Line	AUC (NSC-87877)	IC50 (NSC-87877) [µM]	AUC (VNLG/124)	IC50 (VNLG/124) [µM]	AUC (BX-912)	IC50 (BX-912) [µM]	AUC (Masitinib)	IC50 (Masitinib) [µM]	AUC (Tamoxifen)	IC50 (Tamoxifen) [µM]	AUC (Elesclomol)	IC50 (Elesclomol) [µM]	AUC (OSI-930)	IC50 (OSI-930) [µM]	AUC (LAQ824)	IC50 (LAQ824) [µM]	AUC (HG-5-88-01)	IC50 (HG-5-88-01) [µM]	AUC (Bleomycin; [1])	IC50 (Bleomycin; [1]) [µM]	AUC (Bleomycin; [2])	IC50 (Bleomycin; [2]) [µM]
NH-12 (neuroblastoma, adherent)	0.982	> 16	0.985	> 5.12	0.759	3.99	0.864	> 20	0.979	> 5	0.813	0.125	0.952	> 10.2	0.516	0.0711	0.845	8.54	0.384	1.44	0.429	2.5
UACC-893 (breast, adherent)	0.943	> 16	0.983	> 5.12	0.983	> 10.2	0.886	> 20	0.98	> 5	0.878	> 0.2	0.945	> 10.2	0.582	0.116	0.98	> 10	0.741	19.8	0.771	33.2
KYSE-410 (oesophagus, adherent)	0.985	> 16	0.984	> 5.12	0.955	> 10.2	0.926	> 20	0.979	> 5	0.604	0.0246	0.985	> 10.2	0.405	0.0345	0.893	> 10	0.786	23.2	0.582	6.81
PCI-30 (head and neck, adherent)	0.985	> 16	0.98	> 5.12	0.904	> 10.2	0.975	> 20	0.983	> 5	0.481	0.0109	0.979	> 10.2	0.659	0.196	0.964	> 10	0.625	7.48	0.979	> 64
SJSA-1 (bone, adherent)	0.984	> 16	0.973	> 5.12	0.932	> 10.2	0.795	10.7	0.978	> 5	0.52	0.0143	0.936	> 10.2	0.484	0.0577	0.947	> 10	0.616	6.81	0.428	2.48
HCC1395 (breast, adherent)	0.984	> 16	0.983	> 5.12	0.959	> 10.2	0.951	> 20	0.982	> 5	0.571	0.0203	0.985	> 10.2	0.611	0.138	0.98	> 10	0.617	7.03	0.164	0.29
SK-MES-1 (lung squamous cell carcinoma, adherent)	0.971	> 16	0.983	> 5.12	0.92	> 10.2	0.87	> 20	0.979	> 5	0.905	> 0.2	0.927	> 10.2	0.442	0.0438	0.959	> 10	0.685	10.9	0.461	3.09
HSC-39 (stomach, suspension)	0.969	> 16	0.991	> 5.12	0.678	1.86	0.83	10.2	0.958	> 5	0.904	> 0.2	0.978	> 10.2	0.693	0.204	0.943	> 10	0.943	> 50	0.815	29.2
NB10 (neuroblastoma, adherent)	0.979	> 16	0.984	> 5.12	0.929	> 10.2	0.941	> 20	0.987	> 5	0.57	0.0193	0.958	> 10.2	0.566	0.0962	0.89	> 10	0.227	0.512	0.655	10.6
KYSE-150 (oesophagus, adherent)	0.984	> 16	0.985	> 5.12	0.965	> 10.2	0.978	> 20	0.988	> 5	0.81	0.0996	0.983	> 10.2	0.488	0.0596	0.988	> 10	0.758	16.7	0.087	< 0.25
no-11 (glioma, adherent)	0.983	> 16	0.983	> 5.12	0.932	> 10.2	0.929	> 20	0.979	> 5	0.568	0.0201	0.951	> 10.2	0.654	0.192	0.98	> 10	0.764	22.6	0.737	23
HCC-15 (lung squamous cell carcinoma, adherent)	0.982	> 16	0.979	> 5.12	0.925	> 10.2	0.928	> 20	0.95	> 5	0.67	0.0429	0.966	> 10.2	0.569	0.104	0.903	> 10	0.84	49.4	0.72	20.4
8305C (thyroid, adherent)	0.957	> 16	0.978	> 5.12	0.904	> 10.2	0.973	> 20	0.958	> 5	0.77	0.0997	0.977	> 10.2	0.374	0.0258	0.89	> 10	0.792	30.9	0.239	0.544
BT-483 (breast, adherent)	0.978	> 16	0.977	> 5.12	0.977	> 10.2	0.942	> 20	0.974	> 5	0.567	0.0224	0.917	> 10.2	0.59	0.14	0.974	> 10	0.925	> 50	0.952	> 64
ALL-PO (lymphoblastic leukaemia, suspension)	0.983	> 16	0.859	4.65	0.101	< 0.04	0.871	> 20	0.968	> 5	0.365	0.00519	0.906	> 10.2	0.178	0.00634	0.879	> 10	0.94	> 50	0.304	1.09
CGTH-W-1 (thyroid, adherent)	0.973	> 16	0.985	> 5.12	0.742	3.14	0.798	9.43	0.985	> 5	0.421	0.00759	0.94	> 10.2	0.279	0.0152	0.972	> 10	0.386	1.52	0.517	4.46
SIMA (neuroblastoma, adherent)	0.971	> 16	0.978	> 5.12	0.935	> 10.2	0.862	> 20	0.984	> 5	0.617	0.0274	0.973	> 10.2	0.613	0.137	0.909	> 10	0.569	4.95	0.606	8.12
SW1783 (glioma, adherent)	0.976	> 16	0.988	> 5.12	0.943	> 10.2	0.893	19.8	0.988	> 5	0.869	0.155	0.982	> 10.2	0.548	0.0851	0.979	> 10	0.576	4.94	0.178	0.49
639-V (bladder, adherent)	0.896	14.5	0.988	> 5.12	0.987	> 10.2	0.986	> 20	0.99	> 5	0.386	0.00639	0.978	> 10.2	0.42	0.0402	0.988	> 10	0.318	1.06	0.111	0.298
MDST8 (large intestine, adherent)	0.984	> 16	0.987	> 5.12	0.973	> 10.2	0.969	> 20	0.983	> 5	0.582	0.0209	0.986	> 10.2	0.679	0.201	0.929	> 10	0.497	3.07	0.845	45.6
COLO-684 (endometrium, suspension)	0.978	> 16	0.967	> 5.12	0.845	8.78	0.889	> 20	0.981	> 5	0.524	0.0147	0.98	> 10.2	0.459	0.0487	0.964	> 10	0.948	> 50	0.907	> 64
NCI-H810 (large cell lung carcinoma, adherent)	0.988	> 16	0.986	> 5.12	0.764	3.56	0.806	9.62	0.983	> 5	0.828	0.117	0.978	> 10.2	0.233	0.0112	0.987	> 10	0.888	> 50	0.8	29.4
PC-14 (lung adenocarcinoma, adherent)	0.989	> 16	0.989	> 5.12	0.878	8.42	0.826	10.4	0.989	> 5	0.634	0.028	0.959	> 10.2	0.53	0.0767	0.781	3.68	0.264	0.726	0.175	0.485

Lines with a small IC50 respond at low doses; where the fit passes the top or lowest dose, that dose stands as a limit. AUC is the area under the same curve over the 256-fold range up to the top dose, as a fraction: 1 means no effect, lower means more sensitive. For some assays here: Where the top dose is marked as inferred, it is not printed in the source and was worked back from the curve model. For some assays here: Where an entry number is given, a second screen of the drug exists; the two often differ.
